Source: the supplement of paper PMC12217912
Some of the results follow. The full chains were built here from the parent and the listed change. Inactive controls read about 0.05.

B1: TEV protease; numbered along this chain (parent)
chain: MGESLFKGPRDYNPISSSICHLTNESDGHTTSLYGIGFGPFIITNKHLFRRNNGTLVVQSLHGVFKVKDTTTLQQHLVDGRDMIIIRMPKDFPPFPQKLKFREPQREERICLVTTNFQTKSMSSMVSDTSCTFPSGDGIFWKHWIQTKDGQCGSPLVSTRDGFIVGIHSASNFTNTNNYFTSVPKNFMELLTNQEAQQWVSGWRLNADSVLWGGHKVFMVKPEEPFQPVKEATQL

Variants of: B1
Test: raw area under fraction-flipped curve 0-4 h after induction (AUC4h, not background-subtracted), DNA-recorder readout of cleavage of the substrate (dimensionless); higher = more cleavage of the substrate by the protease variant
Conditions: temperature: 34 °C; time window: 0-4 h after rhamnose induction
Protocol: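 In vivo DNA recorder in E. coli TOP10(DE3) ΔrhaA at 34 °C. Each TEVp single-site mutant (parent TEVp 0) is paired with a single-site variant of the 7-mer TEVs (canonical ENLYFQ|S). The substrate sits between flexible linkers in a Bxb1-sfGFP-TEVs-SsrA fusion, so cleavage stabilises Bxb1 and speeds flipping of a recombination array, read by NGS. The value is the raw area under the fraction-flipped curve over 0-4 h after rhamnose induction (AUC4h), with ≥20 reads per time point. It is not background-subtracted; inactive controls average about 0.047.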
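Further: Bxb1 expression induced with 0.2% (w/v) L-rhamnose at OD600 near 0.5, cultures sampled hourly, flipped fraction per protease–substrate barcode pair counted by paired-end Illumina sequencing.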

Row | Variant | area with substrate ENCYFQS | area with substrate ENEYFQS | area with substrate ENFYFQS | area with substrate ENGYFQS | area with substrate ENHYFQS | area with substrate ENIYFQS | area with substrate ENKYFQS | area with substrate ENMYFQS | area with substrate ENQYFQS | area with substrate ENRYFQS | area with substrate ENSYFQS | area with substrate ENTYFQS | area with substrate ENVYFQS | area with substrate ENYYFQS | area with substrate ENDYFQS | area with substrate ENNYFQS | area with substrate ENWYFQS | area with substrate ENPYFQS
1 | I43P | 0.0477 | 0.0464 | 0.0446 | 0.0504 | 0.0293 | 0.0375 | 0.0432 | 0.0724 | 0.049 | 0.0492 | 0.0484 | 0.0491 | 0.0378 | 0.035 |  |  |  | 
2 | E107K |  | 0.0595 |  | 0.0489 | 0.0525 | 0.0954 |  |  | 0.0542 | 0.0862 | 0.0677 | 0.0714 |  | 0.0742 | 0.0664 | 0.0705 | 0.0708 | 
3 | Q234H | 0.0979 | 0.0533 |  |  | 0.0556 | 0.103 | 0.0716 | 0.0519 |  | 0.053 | 0.0603 |  |  |  | 0.11 |  |  | 
4 | G28E | 0.0699 | 0.0552 | 0.0685 | 0.0506 |  |  | 0.0553 | 0.0462 | 0.0527 | 0.0464 | 0.0612 |  | 0.078 |  | 0.0649 | 0.084 |  | 0.0693
5 | K7Q |  | 0.0551 | 0.0667 |  | 0.063 | 0.0985 |  |  | 0.0478 | 0.0657 | 0.0566 |  | 0.0836 |  | 0.073 | 0.0735 |  | 0.0553
6 | V165S |  | 0.0544 | 0.0439 | 0.0466 | 0.0544 |  | 0.0886 | 0.0449 | 0.0453 |  | 0.0496 | 0.0385 | 0.057 | 0.0596 | 0.0591 |  |  | 0.0481
7 | F41L | 0.0592 | 0.0738 | 0.0589 | 0.0622 | 0.043 | 0.119 |  |  |  | 0.0463 | 0.0578 | 0.0651 | 0.0647 |  | 0.0628 | 0.0547 |  | 
8 | F140A | 0.0459 | 0.0638 |  |  |  | 0.0638 |  | 0.0179 |  |  | 0.0571 |  |  |  | 0.0571 |  |  | 0.0847
9 | L190G |  |  |  | 0.0644 | 0.0683 |  |  | 0.0796 | 0.0628 |  |  | 0.0567 | 0.0587 | 0.0549 | 0.0544 |  |  | 
10 | Q105A | 0.0754 | 0.0579 | 0.07 |  | 0.0557 | 0.112 | 0.0566 | 0.0758 | 0.0564 | 0.0347 | 0.0631 | 0.0598 |  | 0.0659 | 0.0566 | 0.0617 |  | 0.0599
11 | A196M | 0.0772 | 0.0651 | 0.0281 | 0.065 | 0.0548 |  |  | 0.0707 | 0.0547 | 0.0586 |  |  | 0.0869 |  | 0.0529 | 0.0641 | 0.0693 | 0.05
12 | C111N |  | 0.0635 |  |  |  |  | 0.0629 |  | 0.0614 | 0.0352 |  | 0.0763 | 0.0696 |  | 0.0677 | 0.0636 |  | 
13 | T55Y |  | 0.0652 | 0.061 | 0.0615 | 0.07 | 0.101 |  |  |  |  | 0.0594 | 0.0574 | 0.071 | 0.0417 | 0.064 |  |  | 0.0511
14 | Q97S |  |  |  |  |  |  |  | 0.0908 |  |  | 0.0574 |  | 0.0548 |  | 0.0422 |  |  | 
15 | D82F | 0.0567 |  | 0.0542 | 0.053 |  |  | 0.0415 | 0.0458 | 0.0602 | 0.0479 |  | 0.07 | 0.0251 | 0.0607 | 0.0575 | 0.0568 | 0.0054 | 0.0616
16 | D82W | 0.0441 | 0.0556 | 0.0601 | 0.0785 | 0.0672 | 0.0589 |  | 0.0565 | 0.0522 | 0.0421 | 0.0516 |  | 0.0626 |  |  | 0.0479 |  | 0.0601
17 | R51L | 0.0703 | 0.0687 | 0.0552 | 0.0708 |  |  |  | 0.0885 | 0.0573 | 0.072 | 0.146 | 0.0634 |  |  | 0.0626 | 0.0566 |  | 
18 | Y179L | 0.0737 | 0.0407 | 0.12 |  |  | 0.0828 |  |  |  |  | 0.063 |  | 0.0553 |  | 0.0486 | 0.0593 |  | 0.0691
19 | F173L | 0.0722 | 0.0661 |  |  | 0.0551 | 0.122 | 0.0262 |  | 0.0665 |  | 0.0599 |  |  | 0.0537 | 0.0679 | 0.065 |  | 
20 | F173I |  | 0.0736 | 0.0517 | 0.0683 |  |  | 0.0525 |  | 0.064 | 0.0584 | 0.0682 | 0.0582 | 0.0603 |  | 0.0495 | 0.0668 | 0.0147 | 0.0615
21 | S124Q | 0.0633 | 0.046 | 0.0729 | 0.0605 | 0.0513 | 0.0742 | 0.0614 |  | 0.0502 | 0.0646 | 0.0692 | 0.0761 | 0.0671 | 0.0867 | 0.0635 | 0.0544 |  | 0.0543
22 | S201L | 0.0715 | 0.0626 |  |  | 0.0652 | 0.0789 |  |  | 0.0893 | 0.0585 | 0.0588 | 0.0574 | 0.0809 |  | 0.069 |  | 0.0703 | 
23 | S60E |  | 0.0388 | 0.0486 | 0.0536 | 0.054 | 0.0507 | 0.0497 |  | 0.0515 |  | 0.0455 | 0.0581 | 0.0507 |  | 0.0499 |  | 0.0239 | 
24 | C20V | 0.0673 | 0.0613 | 0.0722 | 0.0644 |  | 0.1 | 0.0633 |  | 0.0593 | 0.0629 | 0.0945 | 0.0678 | 0.101 | 0.0553 | 0.0581 |  | 0.0588 | 0.0588
25 | F95G |  |  | 0.0304 |  | 0.0401 |  |  | 0.0582 | 0.0484 | 0.0559 | 0.0472 | 0.0547 | 0.0539 |  | 0.0629 | 0.0588 |  | 0.069
26 | F95V | 0.0629 | 0.0447 |  |  | 0.054 | 0.08 |  | 0.0796 | 0.047 |  |  | 0.0635 |  | 0.0551 | 0.0643 |  |  | 0.0474
27 | G37E | 0.0493 | 0.0577 | 0.0386 | 0.0506 | 0.0428 | 0.0429 | 0.0304 | 0.0491 | 0.0369 | 0.0469 | 0.0497 | 0.0399 |  |  | 0.0579 | 0.069 |  | 0.0615
28 | Q151L |  | 0.0668 | 0.0687 | 0.0724 | 0.062 | 0.0949 |  |  | 0.0631 | 0.0588 | 0.0518 | 0.0472 |  |  | 0.0646 | 0.0755 | 0 | 0.059
29 | Q151P |  | 0.0502 | 0.0548 |  | 0.0572 |  | 0.065 |  | 0.0655 | 0.0477 | 0.0566 |  | 0.0224 |  | 0.0577 |  | 0.0426 | 
30 | N116K | 0.0542 | 0.0574 | 0.0542 | 0.0663 |  |  |  |  | 0.0607 | 0.0435 | 0.115 |  |  |  | 0.0748 | 0.0706 |  | 
